Test results reported in article PMC11960843, “Exploration of the tunability of BRD4 degradation by DCAF16 trans-labelling covalent glues” (European journal of medicinal chemistry, 2024).

Biological target: BRD4BD2 (Homo sapiens, UniProt O60885)
Test: BRD4BD2-eGFP and mCherry flow reporter degradation assay, wild type K562 cells
Conditions: 16 h incubation

Cc1sc2c(c1C)C(c1ccc(C#CCN)cc1)=N[C@@H](CC(=O)OC(C)(C)C)c1nnc(C)n1-2 [GNE011, tert-butyl (S)-2-(4-(4-(3-aminoprop-1-yn-1-yl)phenyl)-2,3,9-trimethyl-6H-thieno[3,2-f][1,2,4]triazolo[4,3-a][1,4]diazepin-6-yl)acetate, reference compound]
bromodomain selectivity of degradation (BRD4BD2 vs BRD4BD1 reporter): selective degradation of the second bromodomain (BRD4BD2) over the first (BRD4BD1)
